Values marked as one replicate rest on one cluster of the flow cell; about a third of the high ones do not repeat.
Tested on: ATP
Assay: switch fluorescence ratio, 500 uM ATP over buffer (Cy3 cluster intensity, sum of 5 cycles each) (fold (ratio)); higher = stronger signal-on switching upon ATP binding; sequences stand for … in TCGTCGGCAGCGTCAGATGTGTATAAGAGACAGTTTTTTTTTTTTTTTTTTTTTTTTT…TC
Conditions: aptamer strand: ATP DNA aptamer (quencher-CACCTGGGGGAGTATTGCGGAGGAAGG + anchor), 100 nM annealed; ATP concentration: 500 uM; one replicate
How it was run: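 Exposure to 500 uM ATP lasted 15 min at 22 °C before imaging, and a selection-buffer image was taken beforehand, for Cy3-labelled switching-strand clusters on a modified Illumina MiSeq flow-cell annealed to 100 nM quencher-labelled ATP aptamer. Five buffer/ATP cycles were run with NaOH stripping and re-annealing between them. The fluorescence ratio per cluster is summed target-cycle over summed buffer-cycle Cy3 intensity, averaged per switch-domain sequence. Clusters outside 100-1000 RFU were excluded.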

| Sequence | switch fluorescence ratio |
| --- | --- |
| TACGTACGGG | 1.75 |
| CACGGCAACC | 1.77 |
| ATTCAAGGA | 0.971 |
| CTTCGTTGAA | 1 |
| CCTGGGATTA | 1 |
| CGTTCCGTGT | 0.953 |
| TCTACATTT | 1.01 |
| TTAGGTGTAG | 1.02 |
| AGCTGGTCGA | 1.01 |
| ACTCTGGGTT | 1.05 |
| AGTACCGTCA | 0.988 |
| ATTGCCCGGT | 1.02 |
| CTAGATCGT | 1 |
| TATGTCTAAG | 1.02 |
| CAGGAAAATC | 1.02 |
| CATGAGAGTC | 1.02 |
| TCAAGGTTGT | 0.986 |
| ACCTTAATAG | 1.02 |
| GAAATCTAGA | 0.972 |
| AGATTAGG | 0.953 |
| CGCCATTAA | 1.07 |
| GAAACGGGAA | 1.02 |
| CATCCTACAG | 1.01 |
| GTAAGAAAAC | 0.953 |
| GCTTACGAAC | 1.57 |
| GGTAGCTCGA | 1.03 |

| Sequence | switch fluorescence ratio |
| --- | --- |
| TACGGCAATT | 1.23 |
| GCTTTGCCAT | 1.01 |
| GTTGAGCTTA | 0.997 |
| CTGGTTAGAA | 0.997 |
| TGCCTGTACT | 1.07 |
| CTGTGGATG | 0.996 |
| TCTGGTACAT | 1.12 |
| CACTCAGACT | 1.03 |
| ATTAGCACC | 1.04 |
| TAACCAAATC | 1.02 |
| GATGGATGGT | 1.03 |
| CAGGGGAACG | 1.02 |
| CGATCGCGGC | 2.6 |
| GTGTTTGAGT | 0.956 |
| TTTCATAAGG | 0.961 |
| AGCAAAAATT | 0.991 |
| GTAACATTTT | 0.963 |
| AGTTTATAGT | 1.06 |
| GGCTTGCAAG | 1.05 |
| ACAAGGGGTA | 1.02 |
| TAGGAATAAA | 0.999 |
| GTTTTATTAC | 1.05 |
| GATAAGCGAC | 1.1 |
| GGGACTTGAA | 1 |
| TGGTGTACTG | 1.02 |
| ATCCAGTCGC | 1.03 |

| Sequence | switch fluorescence ratio |
| --- | --- |
| ACTACCACTC | 1.31 |
| GAATGAAAAA | 1.02 |
| AGAGAGAGAG | 0.995 |
| GCCATACC | 1.09 |
| CACGATAG | 1.03 |
| GCGACCCTCT | 1.14 |
| GAAAATCTCT | 1.06 |
| GAAAAACTTC | 1.07 |
| TGAACCGTAT | 1.01 |
| GTTACCTTGA | 1.04 |
| AAGGATCCTG | 1.02 |
| GAATACCCCT | 1.1 |
| TAGCAGTAGT | 1.18 |
| TTCGGTTCTA | 1.01 |
| TCGGACGCCA | 1.5 |
| ATCAGGCTTA | 1.03 |
| ATGACAGCAT | 1.08 |
| ATTGGCGCAG | 0.995 |
| AGTAATGATA | 1.01 |
| TCCGGTTTGC | 1.21 |
| GGTGAACA | 0.965 |
| TCCAATGGTG | 1.26 |
| ATCAGTGGGA | 0.989 |
| ACAATGAATA | 1.02 |
| GATGGAGAG | 0.978 |
| GAATCCACGA | 1.05 |

| Sequence | switch fluorescence ratio |
| --- | --- |
| GGGAAGATGA | 1.01 |
| ACAGCATATG | 1.04 |
| TGATTAGTAT | 1.03 |
| CTCTATGACT | 1.01 |
| TACACAAGT | 1.1 |
| CGGTGTAATG | 0.951 |
| CTACTAGCGG | 1.01 |
| GCTGATAGGC | 1.01 |
| TAGTTGTGAC | 1.07 |
| GGTGGGAGTA | 1.01 |
| ACGGTCTCGA | 0.974 |
| TGAAGAAAGA | 1.02 |
| CCTATTAAGA | 0.979 |
| GTCTTTGGGA | 0.97 |
| AAACTAGATT | 1.03 |
| GGCTTACGGT | 0.967 |
| CCTAAGTCTA | 1.04 |
| CTATTAACT | 1.05 |
| ACAATATCGC | 1.04 |
| ACGAGAGTCA | 1 |
| GGTAGGACGG | 1.05 |
| CAAGTCTCGA | 1.01 |
| ATGCGGATGT | 1.01 |
| GCATGCGTGC | 1.05 |
| GAGAGTGATG | 0.985 |
| CCGGGTCAG | 1.08 |

| Sequence | switch fluorescence ratio |
| --- | --- |
| GTTTTACAGG | 1.04 |
| AATTGTGGC | 0.987 |
| TGCCTACATT | 1.01 |
| GGTGGATGTT | 1.5 |
| CTCAAATCCC | 1.05 |
| TTATAGGCGA | 1.01 |
| GATGGCAGAG | 0.989 |
| TTATAGTCTA | 1.02 |
| TCCGCCTGCT | 1.44 |
| GGAGTACCAT | 0.983 |
| GTTGGCACAT | 1.02 |
| CGGGTCGCGT | 0.996 |
| ACGTGGAGCG | 0.989 |
| CGGACCGTAG | 1 |
| GATTAAGCTT | 1.02 |
| ATTAAGCCCC | 1.01 |
| AGGGTTGGA | 1.01 |
| ATTGACCTGT | 1.05 |
| CGTCTTGTG | 1 |
| TAAGTTTGAT | 0.976 |
| ACCGACGTTT | 1.38 |
| AAAATCGCCG | 1.02 |
| ATATTCCGGT | 0.969 |
| AACAATGTTA | 0.993 |
| GCATGTGGCG | 0.986 |
| TCCCCCACCA | 1.15 |

| Sequence | switch fluorescence ratio |
| --- | --- |
| TGTTGAGTGG | 1 |
| TCGGTTCTCT | 0.992 |
| CAGTGTCCAG | 1.04 |
| AGACGAACAA | 1.6 |
| TGCGTCCTC | 0.983 |
| GATACCGAGA | 1.06 |
| CGCGATCTTT | 1.11 |
| GTTTGTACA | 1.03 |
| GGTCGGCACG | 0.992 |
| CAATGAAGAG | 1.02 |
| TGGTTTGCCA | 1.02 |
| AATGGGGATA | 1.02 |
| CACAGGTGTG | 1.48 |
| ACAGGACCAG | 1.09 |
| CGGTGATGTC | 1.08 |
| TTGACATCCG | 1.03 |
| TTGATTAGGG | 0.973 |
| TATAGAGACA | 1.01 |
| CCCTTTTCTG | 1.01 |
| GATACATTAA | 1.07 |
| AACTAGTCTG | 1.01 |
| GGGCAGGGCT | 0.948 |
| CGTTCGTCTA | 1.07 |
| ACGTGGGTAC | 1.09 |

— the supplement of paper PMC10126150
